# In the supplement of paper PMC3334620:
# Over roughly 33,000 sequences, “E-score (-0.5 to 0.5)” has its median near -0.053; the highest 2% begin near 0.37. The list shows a part of the results.
# Target: Hap1 (UniProt P0CE41)
# Experiment: PBM E-score (8-mer binding enrichment) (E-score (-0.5 to 0.5)); higher = stronger / more preferred TF binding; most listed sequences are background and not binding sites
# Details: protein concentration: 200 nM; construct: GST-DNA-binding domain
# Outline: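 Bound GST-tagged yeast transcription factors, applied at about 100-200 nM to double-stranded universal all-10-mer Agilent arrays, were detected with fluorescent anti-GST. Scans were normalised with masliner. A modified Wilcoxon-Mann-Whitney statistic, the E-score, was assigned to each ungapped eight-base word pooled with its reverse complement by the Universal PBM Analysis Suite.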
# Chain of UniProt P0CE41 (P0CE41 whole entry): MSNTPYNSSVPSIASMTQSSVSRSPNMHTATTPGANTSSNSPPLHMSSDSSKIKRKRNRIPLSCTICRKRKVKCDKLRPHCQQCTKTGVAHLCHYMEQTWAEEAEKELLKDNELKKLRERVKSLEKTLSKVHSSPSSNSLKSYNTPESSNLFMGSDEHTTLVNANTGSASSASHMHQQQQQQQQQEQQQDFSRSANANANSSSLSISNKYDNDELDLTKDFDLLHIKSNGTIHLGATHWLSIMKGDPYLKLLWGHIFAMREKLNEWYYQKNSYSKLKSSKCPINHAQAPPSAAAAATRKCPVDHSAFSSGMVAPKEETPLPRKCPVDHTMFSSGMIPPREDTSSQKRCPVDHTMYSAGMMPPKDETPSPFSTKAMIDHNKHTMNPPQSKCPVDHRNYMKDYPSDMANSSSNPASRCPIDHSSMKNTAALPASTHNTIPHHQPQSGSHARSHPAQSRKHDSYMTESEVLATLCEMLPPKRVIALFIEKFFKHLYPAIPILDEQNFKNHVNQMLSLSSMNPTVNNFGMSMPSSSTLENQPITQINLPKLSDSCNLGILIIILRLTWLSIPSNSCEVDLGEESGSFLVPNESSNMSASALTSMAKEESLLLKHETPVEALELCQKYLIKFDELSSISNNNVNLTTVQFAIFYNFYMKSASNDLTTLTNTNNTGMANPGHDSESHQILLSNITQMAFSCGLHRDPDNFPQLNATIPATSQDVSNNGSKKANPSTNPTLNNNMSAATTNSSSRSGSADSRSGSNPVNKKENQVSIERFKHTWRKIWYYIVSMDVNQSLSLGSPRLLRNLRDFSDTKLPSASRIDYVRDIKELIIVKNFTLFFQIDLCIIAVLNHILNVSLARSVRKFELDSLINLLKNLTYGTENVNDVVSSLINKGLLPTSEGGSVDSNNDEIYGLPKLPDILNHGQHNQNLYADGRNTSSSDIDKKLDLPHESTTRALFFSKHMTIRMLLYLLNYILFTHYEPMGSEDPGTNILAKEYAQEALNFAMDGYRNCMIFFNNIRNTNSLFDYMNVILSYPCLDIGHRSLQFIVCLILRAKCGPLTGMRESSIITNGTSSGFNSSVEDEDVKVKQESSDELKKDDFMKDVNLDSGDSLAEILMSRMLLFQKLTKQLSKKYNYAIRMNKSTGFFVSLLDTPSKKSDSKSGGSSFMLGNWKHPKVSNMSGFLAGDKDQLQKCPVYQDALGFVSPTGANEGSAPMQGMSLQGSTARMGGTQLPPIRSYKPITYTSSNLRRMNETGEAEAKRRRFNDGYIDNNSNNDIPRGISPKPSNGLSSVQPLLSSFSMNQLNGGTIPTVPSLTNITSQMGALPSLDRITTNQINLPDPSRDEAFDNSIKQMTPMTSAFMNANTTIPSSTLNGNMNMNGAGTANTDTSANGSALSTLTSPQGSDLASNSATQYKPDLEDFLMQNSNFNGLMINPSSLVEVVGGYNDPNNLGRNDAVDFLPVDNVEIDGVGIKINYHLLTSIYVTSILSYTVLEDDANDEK
row,Sequence,PBM E-score
1,CCTCTGAA,-0.0581
2,GGTATGAC,0.0931
3,ATATGTTC,0.13
4,CATGCTGG,-0.321
5,CTCTGATC,-0.225
6,ATCCAAGA,-0.0776
7,CGCCAAAA,-0.0116
8,ACTTCGAC,-0.105
9,GACGAGCA,-0.214
10,ACGACAGA,-0.184
11,GTGGAATA,-0.0626
12,ACTCCGCG,0.371
13,TGAGATAA,0.0866
14,TATTCCAA,-0.162
15,TCGACCAA,-0.331
16,GTGGCGTA,-0.0342
17,GCGTAGAC,-0.131
18,CTGTTACC,-0.0599
19,ACCGGCGC,0.267
20,ATGTTGTG,-0.222
21,CATTCTTA,0.0589
22,AGGAACTG,-0.0516
23,ACCGCCAA,0.0105
24,GGCAGCCA,-0.0898
25,CCTTCTTA,-0.138

row,Sequence,PBM E-score
1,CAGATCCC,0.0493
2,ATAAGATC,-0.174
3,CACAACCG,0.145
4,CTACTTGA,-0.243
5,ATGTGGAC,-0.149
6,GCTCTAGA,-0.0593
7,ATGGACGA,0.0824
8,ACCAAAAC,-0.0677
9,ACCGGGAG,0.26
10,ATGTCTCC,0.228
11,TAACACTA,-0.0807
12,GGACCGGA,0.406
13,AGGACCGG,0.318
14,GAATATCA,0.079
15,CGTGAAGA,-0.0699
16,CTGGACGC,-0.168
17,CCTCCAGC,-0.214
18,ATATACAT,-0.035
19,GAAACTAC,0.023
20,CATTGTAG,-0.16
21,CTTGTTCC,-0.00285
22,ATTGTTTA,-0.209
23,GAACACTA,-0.0849
24,AGGTATTG,-0.104
25,ACGACCTC,0.0239

row,Sequence,PBM E-score
1,CTGTGAAA,-0.195
2,ATAGTTCG,0.0165
3,CAGGCTAG,-0.279
4,ACGCACGA,-0.113
5,CGTGTCAG,0.0219
6,AAATTCCT,0.099
7,ACAGTCAA,-0.214
8,ACGTTACT,-0.0694
9,CATTGTCG,-0.00901
10,TCAAAGCA,-0.0871
11,AACACAAA,-0.111
12,GCGAGCTA,0.0832
13,AGAGTAAA,-0.211
14,ATAGTAAC,-0.0441
15,GGACGCAA,0.229
16,ATGCGTCC,0.157
17,CGCTACGA,0.111
18,CGTGCCCC,-0.175
19,CTCGAACC,-0.0843
20,CACAGGAG,-0.225
21,CTGTGTGC,-0.273
22,TAACAGTA,-0.172
23,CCCGACCC,0.167
24,ACTATATA,-0.024
25,ACCGAGTC,0.0947

row,Sequence,PBM E-score
1,ACCGACAG,0.289
2,CTGATAAA,-0.113
3,AGGCCCAG,-0.157
4,GATAGCCA,-0.133
5,CATGCTAC,-0.155
6,GGCGGCCA,-0.0954
7,TATACTAA,-0.0609
8,ATATTCGG,0.223
9,ATTTACGC,0.0908
10,GCTTGCTA,-0.131
11,AGTTGAGA,-0.131
12,GGCGCCAA,0.0576
13,CGTCAGTC,0.0975
14,AAGTTTCA,-0.0722
15,CGCACACA,-0.0394
16,ATCGTCTG,-0.137
17,CCCGCGGG,0.318
18,GGACCGTA,0.0951
19,ACGTGCCA,-0.0995
20,GCACAGAA,-0.147
21,AGACGATC,-0.229
22,ACTGGGAC,-0.18
23,CCGGAGTA,0.435
24,CTGCGTTC,-0.0106
25,CATACCAA,-0.0543

row,Sequence,PBM E-score
1,GCACAGCA,-0.119
2,AACAACGT,-0.124
3,AGAATCAT,-0.259
4,CTCGAGCA,-0.185
5,CGGCCTTA,0.439
6,ACAAGTGC,-0.278
7,CTTCATCC,0.0444
8,ACAGATGA,-0.243
9,AACACCCT,-0.0622
10,ACGGGGAA,0.158
11,AAACCAGA,-0.24
12,AGCGATGC,-0.178
13,GCGTGGCC,-0.0847
14,ATTGGTAA,-0.0364
15,CAGAAACA,-0.181
16,GCAAACTA,-0.261
17,AATCCGAT,0.401
18,GGACTGAA,0.00891
19,CCAGTGTC,-0.196
20,ACACCTAA,-0.116
21,AGCGGTTC,-0.0758
22,ACGGAATG,0.108
23,TCATAAAA,0.00696
24,CCGCGGGC,0.306
25,CTAAATGA,-0.178

row,Sequence,PBM E-score
1,AAGCCCTC,-0.107
2,ACACATAC,-0.108
3,AAAGTGGT,-0.227
4,ATCAAGCC,-0.153
5,ATCTCTGA,-0.116
6,CCTAACCG,0.022
7,CAAAACGG,0.00507
8,GCTCTTCC,0.0685
9,AAACCGAC,0.198
10,ACTTGAAG,-0.332
11,ATTCATCG,0.0102
12,CGTGCCGC,0.0112
13,ACACTGAG,-0.187
14,GCTATTAC,-0.00619
15,GGGAATAC,0.181
16,GGATGCCA,-0.203
17,GGTCAGTA,0.0181
18,ACAGTCTA,-0.11
19,CCACTTGA,-0.131
20,TAGCACTA,-0.326
21,AGGTAAAT,-0.116
22,CGGGGCTC,0.188
23,GGTGATAA,0.378
24,CTAAACAA,-0.188
25,ATCCCCCG,0.366

row,Sequence,PBM E-score
1,ACCAACCT,-0.0487
2,CGAGGGGA,0.12
3,CGTTAATC,0.219
4,AAGTTGAC,-0.149
5,CATCACCC,0.174
6,ACAGCGCT,-0.0282
7,GGAGCAAC,0.157
8,CAAAAGCA,-0.0137
9,GTGAAAAC,-0.0296
10,AGCGAAGC,-0.0114
11,GGGAAACC,0.138
12,AAATCCGG,0.475
13,GAACCGAA,0.242
14,TTAATCAA,-0.0922
15,GTACTATA,-0.0145
16,CCGAGACC,0.318
17,CAGGAAAC,-0.153
18,AACTTACG,0.0891
19,AGTCCTTG,-0.177
20,GATGGCAA,0.0888
21,GGACGGAC,0.358
22,TAAAGCTA,-0.282
